Some of the results follow.
What follows are compounds tested on T1, C. trachomatis L2/434/Bu expressing GFP (CTL2-GFP). Settings: total inclusion area; 28.5 h, 10 µM; inhibitor.
T1 construct: L2/434/Bu GFP intracellular growth in HeLa cells
Parameters: species or system HeLa; C. trachomatis total inclusion area by high-content imaging, normalised to DMSO
Outline: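 Host cell viability was gauged from Hoechst-stained nuclei counts, while chlamydial growth was taken from total inclusion area and inclusion number per well. Cells were fixed and imaged by high-content microscopy once bulk GFP and resorufin fluorescence had been measured.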
For NS(=O)(=O)c1cc(C(=O)O)ccc1F [CBK113180], the “% of control remaining” value was 103.299. For COc1ncc(-c2cnc3[nH]c(=O)n(Cc4ccc(S(C)(=O)=O)cc4)c3n2)cn1 [CBK065053], the “% of control remaining” value was 101.515. In the case of CC(=O)NC1(c2ccc(F)cc2)CCN(CC(=O)NCC2CC2)CC1 [CBK283614], the “% of control remaining” value is reported as 123.789. COc1ccc(OC)c(C(O)c2coc3ccc(O)c(CN(C)C)c23)c1 (centres unmarked) [CBK261314] was tested, and the “% of control remaining” value was 86.5283. CC(C)(C)c1ccc(CNC(=O)C2CCCN2S(=O)(=O)c2ccc3ccccc3c2)cc1 (centres unmarked) [CBK265020] was tested, and the “% of control remaining” value was 92.0477. For Clc1cccc(CNc2cncc(-c3cccnc3)n2)c1 [CBK065283], the “% of control remaining” value was 61.207. CCN1CCN(c2ccc(C(=O)OC)cc2NC(=O)c2ccccc2Cl)CC1 [CBK270267] was tested, and the “% of control remaining” value was 113.085. For CN(C)CCNc1ccc(-c2n[nH]c(=O)c3ccccc23)cc1[N+](=O)[O-] [CBK266143], the “% of control remaining” value was 107.605. For O=C(N/N=C/c1c(O)ccc2ccccc12)c1ccc(CO)nc1 [CBK261375], the “% of control remaining” value was 26.8902. Nc1ccc(-c2cc(F)cc(F)c2)c2ccccc12 [CBK084314] was tested, and the “% of control remaining” value was 80.4589. CC(C)(C)c1ccccc1NC(=O)N(Cc1cc(F)cc(F)c1)CC1CCNCC1 [CBK049802] was tested, and the “% of control remaining” value was 86.0811. With CC(=O)Nc1ccc(CCOc2nccnc2-c2ccc(C)cc2C)cc1 [CBK106985] the “% of control remaining” value was 95.1487. With O=C(c1ccoc1)N1CCC2(CCCN(Cc3ccc(OC(F)(F)F)cc3)C2)C1 (centres unmarked) [CBK132801] the “% of control remaining” value was 84.1868. With COc1ccc(C(=O)Nc2ccccc2C(=O)NCCCC(=O)O)cc1 [CBK287024] the “% of control remaining” value was 106.819. In the case of Cc1ccc(S(=O)(=O)NC(Cc2ccccc2)C(=O)O)cc1 (centres unmarked) [CBK217645], the “% of control remaining” value is reported as 108.713. In the case of Cn1c(=O)c(-c2nc3ccccc3[nH]2)c(O)c2ccccc21 [CBK027678], the “% of control remaining” value is reported as 81.7335. COc1ccc(-c2nc(NC(=O)Cc3ccccc3OC)cnc2-c2cccc(C)c2)cn1 [CBK036839] was tested, and the “% of control remaining” value was 110.632. For CC12CCC(CC1C(=O)NC1CC1)[C@]1(C2)NC(=O)c2ccccc2N1 (some centres unmarked) [CBK284445], the “% of control remaining” value was 89.5987. For CC1=Nc2c(cnn2-c2ccccc2)C2=NCCCN12 [CBK287928], the “% of control remaining” value was 88.4508. With Cn1c(=O)n(CC(=O)NCc2cccc(F)c2)c2cccnc21 [CBK283911] the “% of control remaining” value was 108.731. With O=C(CCC(=O)c1ccccc1)Nc1ccccc1N1CCNCC1 [CBK028284T] the “% of control remaining” value was 93.8473. With NC(=O)CN1CC2(CCN(CC(=O)Nc3ccc(F)c(Cl)c3)CC2)c2ccccc21 [CBK126790] the “% of control remaining” value was 78.0498. CCOc1ccc(C(=O)C2=C(O)C(=O)N(CCN3CCOCC3)C2c2ccc(N(C)C)cc2)c(C)c1 (centres unmarked) [CBK264650] was tested, and the “% of control remaining” value was 93.6402. For O=C(Nc1ccccc1-c1nc2ccccc2[nH]1)c1ccc2c(c1)OCCO2 [CBK293924], the “% of control remaining” value was 131.39. CCOC(=O)c1sc2ccc(NC(C)=O)cc2c1C [CBK021052] was tested, and the “% of control remaining” value was 50.2654. For Cc1nc(-c2ccccc2)c(CC(=O)NC2CCCOC2)s1 (centres unmarked) [CBK282586], the “% of control remaining” value was 87.0614. In the case of CCOc1ccc(-c2c(C3CC3)n[nH]c2N)cc1OCC [CBK288177], the “% of control remaining” value is reported as 91.5202. In the case of O=C(Nc1cccc(C(F)(F)F)c1)N1CCN(CCCCc2ccc(F)cc2)CC1 [CBK013363C], the “% of control remaining” value is reported as 47.9685. For Cc1cc(=O)c2ccccc2n1CC(=O)N1CCNC(=O)C1C (centres unmarked) [CBK306511], the “% of control remaining” value was 82.5951. In the case of Cc1[nH]c(=O)[nH]c1C(=O)CCCCC(=O)O [CBK263197], the “% of control remaining” value is reported as 90.7781. For O=C(c1ccco1)N1C2CCC1CC(O)(c1cccnc1F)C2 (centres unmarked) [CBK284417], the “% of control remaining” value was 62.8768. For Cc1csc(C(Cc2cccs2)NCC2CCOC2)n1 (centres unmarked) [CBK285051], the “% of control remaining” value was 96.3373. For O=C(NCCSCc1ccco1)C1CCC1 [CBK057516], the “% of control remaining” value was 76.9734. With CCN(CC)CCNC(=O)c1ccc(C(=O)O)c(C)n1 [CBK304248] the “% of control remaining” value was 38.156. In the case of COc1ccc(OCCN(C)c2cnn(-c3ccc(C(=O)O)cc3)c(=O)c2Cl)cc1 [CBK296627], the “% of control remaining” value is reported as 109.243. In the case of Cc1cc(C)n(CC(=O)NCC(c2cccs2)N2CCOCC2)n1 (centres unmarked) [CBK305620], the “% of control remaining” value is reported as 55.8872. In the case of O=C(NC1CCCCC1)[C@H]1CN2CCC1C[C@@H]2Cn1cc(CO)nn1 (some centres unmarked) [CBK289086], the “% of control remaining” value is reported as 115.145. With O=C1Cc2cc3ccccc3cc2C2(CCN(C(=O)C3CCC3C(=O)O)CC2)N1 (centres unmarked) [CBK047252] the “% of control remaining” value was 99.8797. In the case of O=C(O)C1=CC(c2ccccc2)=NS(=O)(=O)N1 [CBK286828], the “% of control remaining” value is reported as 74.8374. For OC1(c2nnsc2-c2ccccc2)CCCC1 [CBK007956], the “% of control remaining” value was 89.8361. With Cc1nc2ccc(C(=O)NCCN3CCc4ccccc43)cc2[nH]1 [CBK283280] the “% of control remaining” value was 98.4402. For COc1ccccc1CNC(=O)c1ccc(=O)[nH]c1 [CBK288133], the “% of control remaining” value was 85.343. In the case of COC(=O)c1ccc(NC(=O)CCN2C(=O)c3cccc([N+](=O)[O-])c3C2=O)cc1 [CBK263137], the “% of control remaining” value is reported as 70.0307. In the case of Cc1cc(C[C@@H]2COC[C@H]2NCc2ccc(C(F)(F)F)cc2)on1 [CBK285463], the “% of control remaining” value is reported as 95.1428. In the case of O=S(=O)(c1sccc1F)N1CCOCC1c1cccc(F)c1 (centres unmarked) [CBK304730], the “% of control remaining” value is reported as 32.481. In the case of CC(=O)C12CCCCC1CC1C3CC(C)C4(O)CC(O)CCC4(C)C3CCC12C (centres unmarked) [CBK261479], the “% of control remaining” value is reported as 91.4707. With CC(=O)N1N=C(COc2ccc3c(c2)OCO3)OC1c1ccc(C)cc1 (centres unmarked) [CBK294397] the “% of control remaining” value was 94.2384. With CC1CN(Cc2nc3c(c(=O)[nH]c(=O)n3C)n2Cc2cccc(Cl)c2)CC(C)O1 (centres unmarked) [CBK269450] the “% of control remaining” value was 68.5597. c1csc(CN2CCNCC2)c1 [CBK027324] was tested, and the “% of control remaining” value was 108.888. Cc1ccc(OCc2ccccc2)c(Br)c1 [CBK002833] was tested, and the “% of control remaining” value was 119.933. For CS(=O)(=O)N1CCc2cc(C(=O)Cn3nc(C(=O)O)c4ccccc4c3=O)ccc21 [CBK297000], the “% of control remaining” value was 102.039. For N#CC(c1ccc(Br)cc1)n1ccnc1 (centres unmarked) [CBK009985], the “% of control remaining” value was 95.4995. For Cc1c(F)cccc1CN(CC(C)(C)CN)C(=O)Nc1ccc2c(c1)OCO2 [CBK002486C], the “% of control remaining” value was 38.5637. CCn1c(=N)c(C(=O)NCCOC)cc2c(=O)n3ccccc3nc21 [CBK287605] was tested, and the “% of control remaining” value was 93.7554. With O=C(CC1CCN(Cc2ccccn2)CC1)Nc1ccc(OC2CCCC2)cc1 [CBK285960] the “% of control remaining” value was 46.4541. In the case of O=C(Nc1ccc([C@@H](O)[C@H]2COCC(=O)N2Cc2ccccc2F)cc1)c1cnccn1 [CBK289060], the “% of control remaining” value is reported as 129.256. For C=CCn1c(SC(C)C(=O)O)nnc1-c1ccc(OC)cc1 (centres unmarked) [CBK268958], the “% of control remaining” value was 90.5776. With CN(C)CCN(CC#Cc1ccccc1)CC#Cc1ccccc1 [CBK265035C] the “% of control remaining” value was 104.13. For CC(C)CN1C(=O)COC[C@@H]1[C@H](O)c1ccc(NC(=O)c2cccnc2)cc1 [CBK289692], the “% of control remaining” value was 105.725. With O=C(Nc1ccc(I)cc1C(=O)Nc1cccnc1)c1ccccc1Cl [CBK266154] the “% of control remaining” value was 100.263. In the case of COc1ccccc1NC(=O)N(CC(C)C)CC(C)C [CBK005456], the “% of control remaining” value is reported as 59.4374. For COc1cccc(CC(=O)N2CCC(Cc3ccc(-c4ccccc4)cc3)(C(N)=O)CC2)c1 [CBK285776], the “% of control remaining” value was 89.0051. In the case of CN1C(=O)C2(CC(=O)N(CC3CCCCC3)C2=O)c2cc(F)ccc21 (centres unmarked) [CBK075257], the “% of control remaining” value is reported as 102.399. With CCOc1cc(NC2CCN(C(=O)CC3(O)CCCCC3)CC2)ncn1 [CBK304141] the “% of control remaining” value was 26.4253. With C=CCNC(=O)C1CC2CCC1(C)C[C@@]21NC(=O)c2ccccc2N1 (some centres unmarked) [CBK284442] the “% of control remaining” value was 84.4393. For Cc1ccc(C(=O)NCCN2CCOCC2)c(N2CCOCC2)n1 [CBK106201], the “% of control remaining” value was 75.9542. With NS(=O)(=O)c1ccc(NC(=S)NNC(=O)C2c3ccccc3Oc3ccccc32)cc1 [CBK267024] the “% of control remaining” value was 102.481. In the case of CSc1nc(N)cc(N2CCN(C(=O)OC(C)(C)C)CC2)n1 [CBK003458], the “% of control remaining” value is reported as 87.3973. For CC(C)n1cc(C(=O)N2CCC(c3cc4ncccc4[nH]3)CC2)cn1 [CBK283392], the “% of control remaining” value was 72.6156. Cc1cc(C(=O)NC2(C#N)CCSCC2)n(C)n1 [CBK306386] was tested, and the “% of control remaining” value was 75.1857. Cc1cc(Cl)cc(Cl)c1S(=O)(=O)Nc1nc(-c2cccc([N+](=O)[O-])c2)cs1 [CBK000902] was tested, and the “% of control remaining” value was 101.094. In the case of CN(C)CCC1OC(=O)N(c2ccccc2)C1=O (centres unmarked) [CBK010134C], the “% of control remaining” value is reported as 96.9957. For COc1cc2c(cc1OC)CN(C(=O)Cc1ccccc1)CC2 [CBK122751], the “% of control remaining” value was 89.5559. CCCn1cc(NC(=O)NC(C)(CC)CO)ccc1=O (centres unmarked) [CBK304864] was tested, and the “% of control remaining” value was 34.7948. For CC(=O)NCC1CCC(C(NC(=O)C2CC2)c2ccccn2)CC1 (centres unmarked) [CBK283000], the “% of control remaining” value was 93.9262. With Fc1ccc(COc2ccc3ccccc3c2CNc2nn[nH]n2)cc1 [CBK268211] the “% of control remaining” value was 95.2876. In the case of COc1ccc(-c2cc3ccc(OC(C)C(=O)O)cc3oc2=O)cc1 (centres unmarked) [CBK267947], the “% of control remaining” value is reported as 86.855. In the case of CC(=O)Nc1ccc(NC(=O)c2cnc(-c3cccc(C)c3)c(-c3ccncc3)c2)cc1C(F)(F)F [CBK036660], the “% of control remaining” value is reported as 32.7191. In the case of Cc1nc[nH]c1CN(Cc1cccc(F)c1)CC1CCCO1 (centres unmarked) [CBK282525], the “% of control remaining” value is reported as 135.218. In the case of O=c1[nH]c(=O)c2cc(S(=O)(=O)NC(c3ccccc3)c3ccccc3)ccc2[nH]1 [CBK286375], the “% of control remaining” value is reported as 58.4878.
